Some of the results follow. At the low end of the ranking the order means little.
Biological target: GST-SBP-SLBP (stem-loop binding protein) (UniProt Q14493)
Experiment: targeted RNA Bind-n-Seq;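 note: DESeq read counts versus GST-SBP nonspecific binding control pulldown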
Conditions: RBNS binding buffer: 25 mM Tris pH 7.5, 150 mM KCl, 3 mM MgCl2, 0.1% Tween, 0.5 mg/mL BSA, 1 mM DTT; 27 nM protein, 750 pM RNA pool; temperature not stated; high values mean tight binding

Sequence | binding signal (log2 fold change)
GGUCACGUCUCAAUCAACUCAUCUCCCAGGGAAAGCCCUGGCUUUUUCAACAGCUCGCAGUCAAG | 0.288
GGUCACGUCUCAAUCAACUCAAAAGAGGGGGGGAAAACCCCUUUGCCCUCCAUGUCAACAGCUCGCAGUCAAG | -0.397
GGUCACGUCUCAAUCAACUCAAACGAGGGGGGGAAAACCCCUUUACCCUCACACUCAACAGCUCGCAGUCAAG | 0.0128
GGUCACGUCUCAAUCAACUCAAUUCCAGGAGUUUACUCCUGCUUACUCAACAGCUCGCAGUCAAG | -0.0216
GGUCACGUCUCAAUCAACUCUUCUUCAGGAGUUUACUCCUGUUUUCUCAACAGCUCGCAGUCAAG | 0.19
GGUCACGUCUCAAUCAACUCAUUUCCAGGAGUUUCCUCCUGCUUUCUCAACAGCUCGCAGUCAAG | 0.0705
GGUCACGUCUCAAUCAACUCUUAAGAGGGGGGGAAAACCCCUUUACCCUCCGUUUCAACAGCUCGCAGUCAAG | -0.503
GGUCACGUCUCAAUCAACUCUACAGAGGGGGGGAAAACCCCUUUGCCCUCCAUAUCAACAGCUCGCAGUCAAG | -0.539
GGUCACGUCUCAAUCAACUCAUUUUCAGGAGUUUACUCCUGUAUACUCAACAGCUCGCAGUCAAG | 0.0539
GGUCACGUCUCAAUCAACUCACAAGAGGGGGGGAAAACCCCUUUGCCCUCACACUCAACAGCUCGCAGUCAAG | 0.201
GGUCACGUCUCAAUCAACUCAGUCCCCAGGGAAACCCCUGGUUAAUUCAACAGCUCGCAGUCAAG | -0.153
GGUCACGUCUCAAUCAACUCAACUUCCAGGGAAAUCCCUGGUUAUCUCAACAGCUCGCAGUCAAG | -0.0259
GGUCACGUCUCAAUCAACUCUACUUCCAGGGAAAGCCCUGGCAAACUCAACAGCUCGCAGUCAAG | -0.0996
GGUCACGUCUCAAUCAACUCAUUCCCAGGAGUUUUCUCCUGCAUUCUCAACAGCUCGCAGUCAAG | 0.0703
GGUCACGUCUCAAUCAACUCAGUCUCCAGGGAAAUCCCUGGCUUUCUCAACAGCUCGCAGUCAAG | -0.542
GGUCACGUCUCAAUCAACUCCUACGAGGGGGGGAAAACCCCUUUACCCUCAUACUCAACAGCUCGCAGUCAAG | -0.157
GGUCACGUCUCAAUCAACUCAUUCCCAGGAGUUUCCUCCUGUAAAUUCAACAGCUCGCAGUCAAG | -0.0105
GGUCACGUCUCAAUCAACUCAAUGUCAGGAGUUUACUCCUGCUAAUUCAACAGCUCGCAGUCAAG | 0.0432
GGUCACGUCUCAAUCAACUCAAUUCCCAGGGAAAUCCCUGGCUUUUUCAACAGCUCGCAGUCAAG | 0.0611
GGUCACGUCUCAAUCAACUCCUUAGAGGGGGGGAAAACCCCUUUGCCCUCAAUAUCAACAGCUCGCAGUCAAG | -0.348
GGUCACGUCUCAAUCAACUCAUUCCCAGGAGUUUUCUCCUGUUAACUCAACAGCUCGCAGUCAAG | 0.0241
GGUCACGUCUCAAUCAACUCUAUAGAGGGGGGGAAAACCCCUUUGCCCUCAACAUCAACAGCUCGCAGUCAAG | 0.0286
GGUCACGUCUCAAUCAACUCUAUCGAGGGGGGGAAAACCCCUUUACCCUCUCAAUCAACAGCUCGCAGUCAAG | 0.049
GGUCACGUCUCAAUCAACUCUUCUCCCAGGGAAACCCCUGGUUUUCUCAACAGCUCGCAGUCAAG | -0.0442
GGUCACGUCUCAAUCAACUCAGUCUCAGGAGUUUACUCCUGCUAAUUCAACAGCUCGCAGUCAAG | -0.111

Sequence | binding signal (log2 fold change)
GGUCACGUCUCAAUCAACUCAAUAGAGGGGGGGAAAACCCCUUUACCCUCCACUUCAACAGCUCGCAGUCAAG | 0.0643
GGUCACGUCUCAAUCAACUCAAUCCCAGGAGUUUACUCCUGCAUAUUCAACAGCUCGCAGUCAAG | -0.0694
GGUCACGUCUCAAUCAACUCACUCGAGGGGGGGAAAACCCCUUUACCCUCAACUUCAACAGCUCGCAGUCAAG | -0.0114
GGUCACGUCUCAAUCAACUCCAUAGAGGGGGGGAAAACCCCUUUACCCUCAAACUCAACAGCUCGCAGUCAAG | -0.124
GGUCACGUCUCAAUCAACUCAAUCCCCAGGGAAAUCCCUGGUUAACUCAACAGCUCGCAGUCAAG | -0.124
GGUCACGUCUCAAUCAACUCUACUCCCAGGGAAAGCCCUGGUUUUUUCAACAGCUCGCAGUCAAG | 0.107
GGUCACGUCUCAAUCAACUCUAUUUCAGGAGUUUUCUCCUGCAAUCUCAACAGCUCGCAGUCAAG | 0.0215
GGUCACGUCUCAAUCAACUCAAUCUCCAGGGAAACCCCUGGUUAACUCAACAGCUCGCAGUCAAG | -0.235
GGUCACGUCUCAAUCAACUCAUCUCCAGGAGUUUGCUCCUGUAUAUUCAACAGCUCGCAGUCAAG | -0.0561
GGUCACGUCUCAAUCAACUCUAUUCCCAGGGAAAUCCCUGGUUUAUUCAACAGCUCGCAGUCAAG | -0.0416
GGUCACGUCUCAAUCAACUCUUUUUCCAGGGAAAACCCUGGUUUAUUCAACAGCUCGCAGUCAAG | -0.0397
GGUCACGUCUCAAUCAACUCUUCUUCAGGAGUUUGCUCCUGCAUUUUCAACAGCUCGCAGUCAAG | -0.087
GGUCACGUCUCAAUCAACUCAUCCUCAGGAGUUUUCUCCUGUAAUCUCAACAGCUCGCAGUCAAG | 0.109
GGUCACGUCUCAAUCAACUCAACUCCAGGAGUUUCCUCCUGCUUAUUCAACAGCUCGCAGUCAAG | -0.00125
GGUCACGUCUCAAUCAACUCUUCUCCCAGGGAAAACCCUGGUAAACUCAACAGCUCGCAGUCAAG | 0.272
GGUCACGUCUCAAUCAACUCUUAAGAGGGGGGGAAAACCCCUUUGCCCUCCAAUUCAACAGCUCGCAGUCAAG | -0.694
GGUCACGUCUCAAUCAACUCAUUCCCCAGGGAAAUCCCUGGUAAACUCAACAGCUCGCAGUCAAG | -0.0132
GGUCACGUCUCAAUCAACUCAAUCCCAGGAGUUUACUCCUGUAUUUUCAACAGCUCGCAGUCAAG | -0.0285
GGUCACGUCUCAAUCAACUCUAUCCCCAGGGAAAGCCCUGGUAUACUCAACAGCUCGCAGUCAAG | 0.0411
GGUCACGUCUCAAUCAACUCAAUUCCCAGGGAAAACCCUGGCAAACUCAACAGCUCGCAGUCAAG | -0.0334
GGUCACGUCUCAAUCAACUCAUUCGAGGGGGGGAAAACCCCUUUACCCUCAACUUCAACAGCUCGCAGUCAAG | -0.124
GGUCACGUCUCAAUCAACUCAUCCCCAGGAGUUUCCUCCUGUAAUUUCAACAGCUCGCAGUCAAG | 0.0669
GGUCACGUCUCAAUCAACUCAAUCUCAGGAGUUUGCUCCUGCAUAGUCAACAGCUCGCAGUCAAG | 0.131
GGUCACGUCUCAAUCAACUCCCAAGAGGGGGGGAAAACCCCUUUGCCCUCAACUUCAACAGCUCGCAGUCAAG | -0.504
GGUCACGUCUCAAUCAACUCAUCUUCAGGAGUUUGCUCCUGUAAAUUCAACAGCUCGCAGUCAAG | -0.00549

Sequence | binding signal (log2 fold change)
GGUCACGUCUCAAUCAACUCAAUCCCAGGAGUUUACUCCUGCUUUUUCAACAGCUCGCAGUCAAG | 0.129
GGUCACGUCUCAAUCAACUCUAUUCCCAGGGAAACCCCUGGCAAAUUCAACAGCUCGCAGUCAAG | -0.00801
GGUCACGUCUCAAUCAACUCUUCCUCCAGGGAAAGCCCUGGCUAACUCAACAGCUCGCAGUCAAG | 0.0397
GGUCACGUCUCAAUCAACUCUAUUUCAGGAGUUUACUCCUGUUUAUUCAACAGCUCGCAGUCAAG | -0.0283
GGUCACGUCUCAAUCAACUCUACUUCCAGGGAAACCCCUGGUAUAUUCAACAGCUCGCAGUCAAG | -0.0699
GGUCACGUCUCAAUCAACUCAUUCUCAGGAGUUUCCUCCUGCAUAGUCAACAGCUCGCAGUCAAG | 0.184
GGUCACGUCUCAAUCAACUCUACUUCAGGAGUUUCCUCCUGCAAACUCAACAGCUCGCAGUCAAG | 0.0801
GGUCACGUCUCAAUCAACUCUUUUCCCAGGGAAAUCCCUGGUUUUCUCAACAGCUCGCAGUCAAG | -0.00953
GGUCACGUCUCAAUCAACUCAUCUCCCAGGGAAAACCCUGGCUAAUUCAACAGCUCGCAGUCAAG | -0.261
GGUCACGUCUCAAUCAACUCCACGGAGGGGGGGAAAACCCCUUUACCCUCAUUUUCAACAGCUCGCAGUCAAG | 0.0356
GGUCACGUCUCAAUCAACUCUCAAGAGGGGGGGAAAACCCCUUUACCCUCACAAUCAACAGCUCGCAGUCAAG | 0.236
GGUCACGUCUCAAUCAACUCCCCAGAGGGGGGGAAAACCCCUUUACCCUCGUAAUCAACAGCUCGCAGUCAAG | -0.316
GGUCACGUCUCAAUCAACUCUUUCUCAGGAGUUUUCUCCUGCAUACUCAACAGCUCGCAGUCAAG | 0.0582
GGUCACGUCUCAAUCAACUCAUUUCCAGGAGUUUUCUCCUGCAUUCUCAACAGCUCGCAGUCAAG | -0.0313
GGUCACGUCUCAAUCAACUCAUUUCCCAGGGAAAGCCCUGGCAUUCUCAACAGCUCGCAGUCAAG | -0.0541
GGUCACGUCUCAAUCAACUCUUCCGAGGGGGGGAAAACCCCUUUACCCUCACUAUCAACAGCUCGCAGUCAAG | 0.347
GGUCACGUCUCAAUCAACUCUACUCCAGGAGUUUACUCCUGCUUUCUCAACAGCUCGCAGUCAAG | -0.108
GGUCACGUCUCAAUCAACUCAUUCUCAGGAGUUUCCUCCUGUUUACUCAACAGCUCGCAGUCAAG | 0.0735
GGUCACGUCUCAAUCAACUCUAUCCCCAGGGAAAGCCCUGGUAUAUUCAACAGCUCGCAGUCAAG | 0.366
GGUCACGUCUCAAUCAACUCAUUUUCCAGGGAAAACCCUGGUUUAUUCAACAGCUCGCAGUCAAG | -0.141
GGUCACGUCUCAAUCAACUCUAUUCCAGGAGUUUCCUCCUGCAUACUCAACAGCUCGCAGUCAAG | 0.00341
GGUCACGUCUCAAUCAACUCUUUUUCAGGAGUUUCCUCCUGCUAAUUCAACAGCUCGCAGUCAAG | -0.0557
GGUCACGUCUCAAUCAACUCAAUCCCCAGGGAAAACCCUGGCAUUCUCAACAGCUCGCAGUCAAG | -0.146
GGUCACGUCUCAAUCAACUCAUCUUCAGGAGUUUACUCCUGCUAUCUCAACAGCUCGCAGUCAAG | 0.0554
